Reference: the CheMixHub ionic liquid set
The source gives many values for each of these; only a part stands here.

Assay: xn = mol fraction of the nth substance listed
Settings: for viscosity: x2 = 0.007156

CCCCCCCCCCCCCCCC[N+](C)(C)C.[Br-] + NCC(=O)O + O
viscosity [mPa·s], 101 kPa
Settings | x1 = 3.5e-06 | x1 = 8.29e-06 | x1 = 1.143e-05 | x1 = 1.456e-05 | x1 = 1.751e-05 | x1 = 2.119e-05 | x1 = 2.359e-05 | x1 = 2.783e-05 | x1 = 3.206e-05 | x1 = 3.612e-05
308.15 K | 0.756 | 0.76 | 0.761 | 0.764 | 0.765 | 0.769 | 0.775 | 0.78 | 0.786 | 0.791
313.15 K | 0.685 | 0.687 | 0.69 | 0.692 | 0.695 | 0.697 | 0.7 | 0.706 | 0.71 | 0.714

CCCCCCCCCCCCOS(=O)(=O)[O-].[Na+] + CCCO + O
298.15 K, 101 kPa
Settings | electrical conductivity [S/m]
x2 = 0.01553, x1 = 0.0003308 | 0.07978
x2 = 0.01553, x1 = 0.0003578 | 0.08478
x2 = 0.01553, x1 = 0.000383 | 0.08944
x2 = 0.01553, x1 = 0.0004069 | 0.09399
x2 = 0.02372, x1 = 0.0003901 | 0.0949
x2 = 0.02373, x1 = 1.75e-05 | 0.005353
x2 = 0.02373, x1 = 1.978e-05 | 0.006091
x2 = 0.02373, x1 = 2.168e-05 | 0.00667
x2 = 0.02373, x1 = 2.567e-05 | 0.00782
x2 = 0.02373, x1 = 3.005e-05 | 0.009043
x2 = 0.02373, x1 = 3.442e-05 | 0.01031
x2 = 0.02373, x1 = 3.804e-05 | 0.0114
x2 = 0.02373, x1 = 4.241e-05 | 0.01271
x2 = 0.02373, x1 = 4.964e-05 | 0.01488
x2 = 0.02373, x1 = 5.344e-05 | 0.01601
x2 = 0.02373, x1 = 6.903e-05 | 0.02092
x2 = 0.02373, x1 = 7.284e-05 | 0.02206
x2 = 0.02373, x1 = 7.721e-05 | 0.02332
x2 = 0.02373, x1 = 8.349e-05 | 0.02506
x2 = 0.02373, x1 = 8.748e-05 | 0.02621
x2 = 0.02373, x1 = 9.185e-05 | 0.02741
x2 = 0.02373, x1 = 9.585e-05 | 0.02852
x2 = 0.02373, x1 = 0.0001008 | 0.02992
x2 = 0.02373, x1 = 0.000104 | 0.0308
x2 = 0.02373, x1 = 0.0001105 | 0.03249
x2 = 0.02373, x1 = 0.0001169 | 0.03429
x2 = 0.02373, x1 = 0.0001221 | 0.03562
x2 = 0.02373, x1 = 0.0001295 | 0.03751
x2 = 0.02373, x1 = 0.0001392 | 0.03991
x2 = 0.02373, x1 = 0.0001554 | 0.04384
x2 = 0.02373, x1 = 0.0001706 | 0.0474
x2 = 0.02373, x1 = 0.0001919 | 0.05233
x2 = 0.02373, x1 = 0.0002168 | 0.05791
x2 = 0.02373, x1 = 0.0002537 | 0.06598
x2 = 0.02373, x1 = 0.0002848 | 0.07256
x2 = 0.03223, x1 = 0.0002102 | 0.05126
x2 = 0.03223, x1 = 0.0002472 | 0.05904
x2 = 0.03223, x1 = 0.0002927 | 0.06827
x2 = 0.03223, x1 = 0.0003477 | 0.07925
x2 = 0.03223, x1 = 0.0004112 | 0.0917
x2 = 0.03223, x1 = 0.0004828 | 0.1053
x2 = 0.03224, x1 = 3.68e-06 | 0.001146
x2 = 0.03224, x1 = 6.2e-06 | 0.001816
x2 = 0.03224, x1 = 8.91e-06 | 0.002513
x2 = 0.03224, x1 = 1.337e-05 | 0.00361
x2 = 0.03224, x1 = 1.821e-05 | 0.004833
x2 = 0.03224, x1 = 2.558e-05 | 0.006687
x2 = 0.03224, x1 = 3.1e-05 | 0.008058
x2 = 0.03224, x1 = 3.507e-05 | 0.009172
x2 = 0.03224, x1 = 3.953e-05 | 0.01037
x2 = 0.03224, x1 = 4.398e-05 | 0.01158
x2 = 0.03224, x1 = 4.902e-05 | 0.01284
x2 = 0.03224, x1 = 5.348e-05 | 0.01406
x2 = 0.03224, x1 = 5.793e-05 | 0.01532
x2 = 0.03224, x1 = 6.22e-05 | 0.01642
x2 = 0.03224, x1 = 6.646e-05 | 0.01789
x2 = 0.03224, x1 = 7.13e-05 | 0.01912
x2 = 0.03224, x1 = 7.556e-05 | 0.02014
x2 = 0.03224, x1 = 8.079e-05 | 0.02152
x2 = 0.03224, x1 = 8.912e-05 | 0.02363
x2 = 0.03224, x1 = 9.997e-05 | 0.02631
x2 = 0.03224, x1 = 0.0001224 | 0.03172
x2 = 0.03224, x1 = 0.0001377 | 0.03523
x2 = 0.03224, x1 = 0.0001779 | 0.04421

CCCCCCCC[n+]1ccccc1.[Br-] + NCC(=O)O + O
100 kPa
Settings | electrical conductivity [S/m]
288.15 K, x2 = 0.001787, x1 = 0.006289 | 1.24
288.15 K, x2 = 0.001787, x1 = 0.006476 | 1.26
288.15 K, x2 = 0.001788, x1 = 0.00597 | 1.21
288.15 K, x2 = 0.001789, x1 = 0.005259 | 1.15
288.15 K, x2 = 0.001789, x1 = 0.005628 | 1.18
288.15 K, x2 = 0.00179, x1 = 0.004853 | 1.1
288.15 K, x2 = 0.001791, x1 = 0.004411 | 1.05
288.15 K, x2 = 0.001792, x1 = 0.003921 | 0.977
293.15 K, x2 = 0.001787, x1 = 0.006281 | 1.41
293.15 K, x2 = 0.001787, x1 = 0.006471 | 1.43
293.15 K, x2 = 0.001788, x1 = 0.005965 | 1.38
293.15 K, x2 = 0.001789, x1 = 0.005253 | 1.3
293.15 K, x2 = 0.001789, x1 = 0.005622 | 1.34
293.15 K, x2 = 0.00179, x1 = 0.00485 | 1.25
293.15 K, x2 = 0.001791, x1 = 0.004406 | 1.18
293.15 K, x2 = 0.001792, x1 = 0.003917 | 1.11
298.15 K, x2 = 0.001787, x1 = 0.006274 | 1.6
298.15 K, x2 = 0.001787, x1 = 0.00646 | 1.62
298.15 K, x2 = 0.001788, x1 = 0.005957 | 1.55
298.15 K, x2 = 0.001789, x1 = 0.005246 | 1.46
298.15 K, x2 = 0.001789, x1 = 0.005614 | 1.51
298.15 K, x2 = 0.00179, x1 = 0.004842 | 1.41
298.15 K, x2 = 0.001791, x1 = 0.004401 | 1.33
298.15 K, x2 = 0.001792, x1 = 0.003912 | 1.24
303.15 K, x2 = 0.001787, x1 = 0.006265 | 1.79
303.15 K, x2 = 0.001787, x1 = 0.006451 | 1.81
303.15 K, x2 = 0.001788, x1 = 0.005948 | 1.74
303.15 K, x2 = 0.001789, x1 = 0.005239 | 1.64
303.15 K, x2 = 0.001789, x1 = 0.005606 | 1.69
303.15 K, x2 = 0.00179, x1 = 0.004835 | 1.57
303.15 K, x2 = 0.001791, x1 = 0.004395 | 1.48
303.15 K, x2 = 0.001792, x1 = 0.003906 | 1.38
308.15 K, x2 = 0.001787, x1 = 0.006441 | 2.06
308.15 K, x2 = 0.001788, x1 = 0.005938 | 1.96
308.15 K, x2 = 0.001788, x1 = 0.006255 | 2.03
308.15 K, x2 = 0.001789, x1 = 0.00523 | 1.82
308.15 K, x2 = 0.001789, x1 = 0.005597 | 1.89
308.15 K, x2 = 0.00179, x1 = 0.004828 | 1.73
308.15 K, x2 = 0.001791, x1 = 0.004386 | 1.64
308.15 K, x2 = 0.001792, x1 = 0.003901 | 1.51

CCCCCCCCCCCCCCCC[N+](C)(C)C.[Br-] + O + CO
313 K, 101 kPa
Settings | electrical conductivity [S/m]
x1 = 9.57e-05, x2 = 0.9199 | 0.08
x1 = 0.0001148, x2 = 0.9199 | 0.087
x1 = 0.000134, x2 = 0.9199 | 0.093
x1 = 0.0001531, x2 = 0.9199 | 0.0991
x1 = 0.0001722, x2 = 0.9198 | 0.105
x1 = 0.0001914, x2 = 0.9198 | 0.111
x1 = 0.0002105, x2 = 0.9198 | 0.117
x1 = 0.0002296, x2 = 0.9198 | 0.122
x1 = 0.0002488, x2 = 0.9198 | 0.128
x1 = 0.0002679, x2 = 0.9198 | 0.134
